Screen size: about 150,000 compounds; about 540 (0.36%) showed an effect of 50% or more. Some of the results follow.

The test system of the experiment is Plasmodium falciparum. Description: Primary screen in NF54 nanoGlo assay, in single point, at 2uM, 72h; a lower Z score goes with more inhibition. In kind it is functional, Erythrocyte. To be noted: timepoint 72 hour.
As usually defined, the % Inhibition is the drop in the measured response relative to a control, in per cent. Turning to `O=C(CN1CCCN(c2ncnc3cc(-c4ccc(F)cc4)sc23)CC1)N1CCCC1`, the “% Inhibition” value is -1% and the Z score came out at 0.13.

`CCn1cc(CN2C[C@H](NC(=O)CCC(F)(F)F)[C@@H](C3CC3)C2)cn1`: the “% Inhibition” value is on record as -7% and the Z score was found to be 0.96.

`O=C1c2ccccc2C(=O)N1CCN1CCN(c2ncccn2)CC1`: the “% Inhibition” value is given as 0% and the Z score was -0.03.

Regarding `COc1ccccc1[C@@H]1N(c2ccccc2)OC(=O)N1c1cccc(Cl)c1`, the “% Inhibition” value is on record as -4% and the Z score is on record as 0.51.

For `COc1cc(C(=O)N2CCN(Cc3csc(C(C)(C)C)n3)CC2)on1`, the “% Inhibition” value turned out to be 0% and the Z score was found to be 0.05.

For the compound `Cc1cc(C(=O)NCCCn2cn[nH]c2=O)ns1`, the “% Inhibition” value is given as -4% and the Z score amounted to 0.59.

Regarding `COc1ccc(CCCN(C)CCS(C)(=O)=O)cc1`, the “% Inhibition” value is on record as -16% and the Z score came out at 2.5.

With `CCc1nccc(CN2CCC[C@H](c3nnc4ccccn34)C2)n1`, the “% Inhibition” value came out at 3% and the Z score is given as -0.37.

Take `O=c1c2ccccc2nnn1CCNS(=O)(=O)c1ccc(-n2cccn2)cc1`: the “% Inhibition” value is recorded as -16% and the Z score is given as 2.78.

Take `Cc1nc(-c2nc([C@H]3CCNC3)n(Cc3c(F)cccc3Cl)n2)cs1`: the “% Inhibition” value is listed as -14% and the Z score came out at 1.93.

Consider `C#CC[C@H](NC(=O)c1ccccc1CC)C(N)=O`, for which the “% Inhibition” value is listed as -9% and the Z score came to 0.99.

Regarding `O=C1C[C@@H](c2ccc3c(c2)OCO3)c2cc3c(cc2N1)OCO3`, the “% Inhibition” value is given as -12% and the Z score was 1.13.

Regarding `Cc1cc(O)nc(C(=O)N2CCc3c(C)cc(C)cc3C2)c1`, the “% Inhibition” value is on record as -7% and the Z score stood at 0.59.

Consider `O=C(Cc1ccc(F)cc1)Nc1nnc(Cc2ccc3c(c2)OCCO3)o1`, for which the “% Inhibition” value was -3% and the Z score amounted to 0.35.

Take `O=C(NC[C@]1(O)CCCNC1)c1ccc(-c2ccc(O)c(Cl)c2)cc1`: the “% Inhibition” value is reported as -21% and the Z score is recorded as 3.21.

Turning to `CN(CC(=O)NCc1cccs1)c1nnc(N2CCCC2=O)s1`, the “% Inhibition” value was -2% and the Z score worked out at 0.36.

With `Cn1nccc1C(=O)N(Cc1ccncc1)Cc1ccc2c(c1)OCO2`, the “% Inhibition” value was -5% and the Z score is 0.62.

On to `COc1ccccc1-c1nnc([C@H]2CCN(CCCc3ccccc3)C2)o1`, for which the “% Inhibition” value was -11% and the Z score is reported as 1.68.

As to `CC1CN(c2nnc(NC(=O)c3ccccc3)s2)CC(C)O1` (stereo not given), the “% Inhibition” value was -11% and the Z score stood at 1.6.

`CC12CN(S(=O)(=O)c3ccccc3)C3(C(=O)O)CC1CCC23C` (stereo not given): the “% Inhibition” value was 6% and the Z score is given as -0.98.

With `O=c1n(Cc2nccn2CC(F)(F)F)nc2c(Cl)cccn12`, the “% Inhibition” value is recorded as -1% and the Z score was found to be 0.15.

For `Cc1nc(N2CCC(Nc3ccccn3)CC2)nc2cc(S(C)(=O)=O)ccc12`, the “% Inhibition” value is on record as -7% and the Z score is listed as 0.78.

As for `CC(C)c1nc(C(=O)Nc2ccccc2CN2CCNC2=O)cs1`, the “% Inhibition” value was 30% and the Z score is -0.47.

On to `O=C(c1c(O)cc(F)cc1F)N1CCCC[C@@H]1CN1CCOCC1`, for which the “% Inhibition” value is listed as -13% and the Z score worked out at 1.9.

Take `COc1ccc(Cc2nnc(C(=O)NCCN3CCN(c4cccc(Cl)c4)CC3)o2)cc1OC`: the “% Inhibition” value was -1% and the Z score is listed as 0.12.

Take `Cc1ccc([C@H](C)N(C)CC(N)=O)s1`: the “% Inhibition” value was -4% and the Z score was found to be 0.65.

For `Cc1nn(C)c(C)c1C(=O)C(=O)N1CCC[C@H](C)C1`, the “% Inhibition” value was -31% and the Z score is 3.67.

Turning to `C[C@H](CNCc1nnc2ccccn12)Cc1ccccc1`, the “% Inhibition” value is reported as -12% and the Z score is 1.6.

As for `C[C@@H](C(=O)NCc1ccc2c(c1)CCCC2)n1cccn1`, the “% Inhibition” value is on record as 2% and the Z score is reported as -0.41.

For `CC(C)C(=O)Nc1nnc(-c2cc(Cl)sc2Cl)o1`, the “% Inhibition” value is listed as -6% and the Z score stood at 1.09.

With `CC(C)c1ccc(C#N)c(N(C)CC(C)(C)CO)n1`, the “% Inhibition” value is recorded as -21% and the Z score stood at 2.08.

Turning to `O=C(COc1ccc(Cl)cc1Cl)N1CC=C(c2c[nH]c3ccccc23)CC1`, the “% Inhibition” value is listed as -16% and the Z score is on record as 1.32.

`CC(C(=O)NC1CC2CCC1C2)N(c1ccc2c(c1)OCCO2)S(C)(=O)=O` (stereo not given): the “% Inhibition” value is on record as -22% and the Z score is 2.01.

As to `C[C@H]1CC(=O)NCCN1C(=O)Nc1ccccc1N1CCCC1=O`, the “% Inhibition” value worked out at 1% and the Z score is recorded as -0.07.

Regarding `N#CCCn1ncc2c(N3CCc4sccc4C3)ncnc21`, the “% Inhibition” value is -8% and the Z score turned out to be 1.2.

Take `Cc1ccc([C@H]2Oc3ccccc3-n3c(-c4ccccc4C)c4c(=O)n(C)c(=O)n(C)c4c32)c(O)c1`: the “% Inhibition” value is reported as -4% and the Z score amounted to 0.65.

Regarding `CC(C)c1nnc2n1[C@](C)(C(=O)NCCN1CCN(c3cccc(Cl)c3)CC1)COC2`, the “% Inhibition” value is on record as -12% and the Z score is 1.36.

Turning to `COc1ccnc(C(=O)NCc2c(C)n[nH]c2C)c1`, the “% Inhibition” value is -13% and the Z score worked out at 1.24.

With `CCn1cc(C(=O)N[C@@H](C)COc2ccccc2OC)cn1`, the “% Inhibition” value is given as -8% and the Z score came out at 1.1.

`CNC(=O)[C@@H]1CCCCN1Cc1ccon1`: the “% Inhibition” value is 28% and the Z score is on record as -3.14.

Turning to `CC[C@H](C)NC(=O)CCCc1nnc(C(=O)Nc2ccccc2C)s1`, the “% Inhibition” value is given as -3% and the Z score stood at 0.49.

As to `COc1cccc(OC)c1C(=O)Nc1c(-c2ccc(C(F)(F)F)cc2)n[nH]c1C1CC1`, the “% Inhibition” value is on record as -12% and the Z score amounted to 2.14.

For the compound `O=C(Nc1nc2ccccc2[nH]1)c1ccncc1`, the “% Inhibition” value was determined as 1% and the Z score is recorded as -0.23.

`O=C1C[C@H](COC(=O)c2cc(Cl)cc(C(F)(F)F)c2)CN1`: the “% Inhibition” value is recorded as -2% and the Z score came out at 0.34.

For `COC(C)CS(=O)(=O)N(C)C(C)Cc1ccsc1` (stereo not given), the “% Inhibition” value was 0% and the Z score was 0.06.

Consider `Cc1ccc2oc(-c3ccc(NC(=O)CCCc4nc(-c5ccccc5)no4)cc3)nc2c1`, for which the “% Inhibition” value is reported as -37% and the Z score is listed as 3.23.

Regarding `Cc1nnc([C@@H]2CC3(CCN(C(=O)C(C)C)CC3)CN2C(=O)c2ccccc2)o1`, the “% Inhibition” value is -2% and the Z score came to 0.28.

For `CC(C)CNC(=O)COc1ccccc1`, the “% Inhibition” value was -4% and the Z score worked out at 0.45.

For the compound `CC(CNC(=O)C1COCCN1CC1CCC1)c1nncn1C` (stereo not given), the “% Inhibition” value was 0% and the Z score came out at 0.02.

In the case of `Cn1ccnc1C1CC(Nc2nc(C3CCCC3)ns2)CCO1` (stereo not given), the “% Inhibition” value is given as -9% and the Z score was found to be 0.91.

On to `COC(=O)C[C@H](C)NC(=O)CCNc1cc(C)cc(C)c1`, for which the “% Inhibition” value was 3% and the Z score was -0.34.

For `CCOc1ccc(C(CNS(=O)(=O)N2CC(C)OC(C)C2)c2c[nH]c3ccccc23)cc1OC` (stereo not given), the “% Inhibition” value was -14% and the Z score was found to be 1.83.

On to `Cc1ccncc1CN(C)S(=O)(=O)C1CCC(C(F)(F)F)CC1` (stereo not given), for which the “% Inhibition” value was 10% and the Z score was -1.34.

Regarding `O=S(=O)(NCc1cscn1)N1CCCC1`, the “% Inhibition” value is -4% and the Z score amounted to 0.81.

Turning to `CCn1nc([C@@H]2CCCCN2C(=O)c2ncccc2C)c2c1CCOC2`, the “% Inhibition” value is recorded as -4% and the Z score turned out to be 0.38.

Source of the values: ChEMBL document CHEMBL4888484, “Replenishing the malaria drug discovery pipeline: Screening and hit evaluation of the MMV Hit Generation Library 1 (HGL1) against asexual blood stage Plasmodium falciparum ,using a nano luciferase reporter read-out” (2022).
